The supplement of paper PMC11417369
± gives the standard deviation of the averaged measurements. The list shows a part of the results.

Tested on: PfAP2-I AP2 domain 3 (GST-tagged)
Experiment: gcPBM binding intensity (ln(normalized median fluorescence intensity)); higher = stronger DNA binding
Outline: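 After 1 h on an Agilent 4 × 180k array of primer-extended double-stranded 36-bp intergenic genomic probes and negative controls, bound GST-tagged P. falciparum DNA-binding domains were detected with Alexa488 anti-GST antibody and scanned at 488 nm. The domains had been expressed in E. coli, and binding took place in 1× PBS with 1% milk, 0.2 mg/ml BSA, 0.5% salmon testes DNA and 0.03% Triton X-100. Binding intensity is the highest Masliner-normalised natural-log median intensity across replicate spots of either probe orientation.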

| Sequence | gcPBM binding intensity (ln) |
| --- | --- |
| AAACAACATGGACACGCACACACAAAAAAAGCATGC [CACACA_site73] | 8.15 ± 0.42 |
| ACAAACTAAAAAAGAAGTACAAATCGTATTAATAAT [XGTACX_site8684] | 7.81 ± 0.44 |
| TTTTTTGAAAATAAAAGTACAAATTTTATATTTAAA [XGTACX_site2758] | 7.65 ± 0.14 |
| AGAAAAAAACGGTACAGTACACATAAACTAATTATT [XGTACX_site8617] | 7.83 ± 0.59 |
| TATTATATATGGAAGTAATAATATATATATATATAT [GTGCAC_negctrl_site63] | 9.04 ± 0.099 |
| TTATGTCGTAAATACACACATACATATACATACACA [CACACA_site1374] | 7.86 ± 0.54 |
| TTGTCACTAATAGATGCATGCAATCATTCCATTTTT [TGCATGCA_site938] | 7.67 ± 0.9 |
| AATAAATTGAAACACACACACACATATATATATATA [CACACA_site848] | 9.39 ± 0.23 |
| TTGTAATGATATATTTGTACTTAATATAATTGTATA [XGTACX_site2748] | 7.67 ± 0.17 |
| GTTACATACCTATACACACACATATATAAATAAATA [CACACA_site6549] | 8.3 ± 0.3 |
| TAACAAAACATAGATTGTACATATTATAAATGTATA [XGTACX_site1543] | 7.6 ± 0.23 |
| CAATATTATATTACTTGTACACATATGTAGTTTCGA [XGTACX_site8945] | 7.83 ± 0.33 |
| TTTCCCATAGGAAAAACACACATATATTATATATAA [CACACA_site1981] | 7.44 ± 0.48 |
| CAAAATATACACACGTGTACACAAATATTTACAAAA [XGTACX_site2257] | 8.36 ± 0.33 |
| ATATAAAAATACAGGTGTACATTTTTTCATATTTAT [XGTACX_site6959] | 7.76 ± 0.54 |
| TATTCTTATCTTACCACACACAATGTACGAAAAGAT [CACACA_site6296] | 8.2 ± 0.31 |
| ATCATTTTTTATGCGTGTACATAAATTTATTAGGTT [XGTACX_site2786] | 8.15 ± 0.6 |
| TTTTTTGTTAAACCGGTGCATATAAATATATATATA [GTGCAC_site9989] | 10.8 ± 0.26 |
| TAATTATTACACGGTATTATATATAATATGTTAAAA [GTGCAC_negctrl_site134] | 8.04 ± 0.42 |
| CACAAAAAAGTTCATACACACAACATATTTATATAT [CACACA_site2887] | 7.61 ± 0.45 |
| ATATCTATATTTTAAAGTACGTAGTAAAAAGAAAAA [XGTACX_site4323] | 8.12 ± 0.47 |
| TTTTTTTTTTTTCTGTGTACATATATAATATATATA [XGTACX_site1592] | 8.21 ± 0.52 |

| Sequence | gcPBM binding intensity (ln) |
| --- | --- |
| TTTTATGAAAAGATGAGTACACAATACTTTTTAATT [XGTACX_site8253] | 7.79 ± 0.28 |
| TGCATGTAATTTTTGTGTCCACATAAAATATTTAAT [XGTACX_site5652] | 8.02 ± 0.31 |
| TTCTATATATTATATGCATGTAAAACATATTAAAAT [TGCATGCA_site662] | 7.93 ± 0.61 |
| TTTTTATGAAAATAAACACACGATTTATTATATATA [CACACA_site1311] | 7.62 ± 0.4 |
| TTTTTCAATTGTAGTGGTACAGATATAATTATCTCT [XGTACX_site5500] | 7.8 ± 0.57 |
| ATGTACTATGATAATGCATGCAATAATACATTTTTA [TGCATGCA_site318] | 7.95 ± 0.67 |
| TTATTATGTATATATGCACACAATACCCAAAACAAC [CACACA_site80] | 9.365 ± 0.035 |
| TAATATATATATAATACACACTATTTTAATCACATA [CACACA_site4849] | 7.71 ± 0.59 |
| TTTATTGCTCTATATGCACACCTTAATTCTTCATTT [CACACA_site8682] | 9.86 ± 0.11 |
| GAAGATTTATCTTGCACACGCAAAAAAAAAAAAAAA [CACACA_site154] | 8.92 ± 0.085 |
| GAAAATATTTCTATCTGTACTTATTTATATATATAT [XGTACX_site7317] | 9.06 ± 0.099 |
| AAAAATAATCATAGTAGTACAAAAAAAAAAAAAAAA [XGTACX_site3736] | 8.01 ± 0.57 |
| TACGTAAATTCTAATACACACTATAGGATATTCTGC [CACACA_site7248] | 7.63 ± 0.42 |
| TTTATAATATACATAACACACAATTATTATTTCTTA [CACACA_site3624] | 7.58 ± 0.47 |
| AACTTTTAGAAGAACACACACATATAGATTATGACC [CACACA_site6256] | 7.89 ± 0.57 |
| TTTTTTTCCTTATCTATATATAATCAAATTTTCTAC [CACACA_negctrl_site867] | 7.75 ± 0.61 |
| TTATAACAAATATAGAGTACTAAAATTTTACGTTAT [XGTACX_site1410] | 7.66 ± 0.48 |
| TCGAACATTAACATAACACACATATATATATATATA [CACACA_site2900] | 9.27 ± 0.29 |
| AAGGTTATTTATATATGTACTTAATATATATATATG [XGTACX_site886] | 7.7 ± 0.23 |
| TGCTATAATTTATATACACACAAATATATACTCATA [CACACA_site6111] | 7.7 ± 0.45 |
| TATAACTATTTATAATGTACTCATGTATAATTATAT [XGTACX_site7913] | 7.67 ± 0.22 |
| TTAATTTATTTATGCACACATATATAATTACACATA [CACACA_site4544] | 9.9 ± 0.43 |
